# Results taken from PubChem BioAssay AID588342 (National Center for Advancing Translational Sciences (NCATS), 2011).
# Several values for one entry are separate records, joined by “and”; a condition that tells them apart may be missing. Identical values can stand only once. About 25,000 (6.9%) of roughly 360,000 compounds were called active. The shares of active, inactive and inconclusive entries below differ from those in the screen. Calls follow the shape of the dose curve; as a rule, active = well fitted inhibition curve with a large enough effect; inconclusive = small, poorly fitted or top-dose-only effect; inactive = flat fitted curve, though single readings scatter. A potency beside an inconclusive call is a rough fit, not a confirmed value.
# Molecular target: Luciferin 4-monooxygenase (Photinus pyralis) (UniProt P08659)
# Sequence of UniProt P08659 (P08659 whole entry, looked up): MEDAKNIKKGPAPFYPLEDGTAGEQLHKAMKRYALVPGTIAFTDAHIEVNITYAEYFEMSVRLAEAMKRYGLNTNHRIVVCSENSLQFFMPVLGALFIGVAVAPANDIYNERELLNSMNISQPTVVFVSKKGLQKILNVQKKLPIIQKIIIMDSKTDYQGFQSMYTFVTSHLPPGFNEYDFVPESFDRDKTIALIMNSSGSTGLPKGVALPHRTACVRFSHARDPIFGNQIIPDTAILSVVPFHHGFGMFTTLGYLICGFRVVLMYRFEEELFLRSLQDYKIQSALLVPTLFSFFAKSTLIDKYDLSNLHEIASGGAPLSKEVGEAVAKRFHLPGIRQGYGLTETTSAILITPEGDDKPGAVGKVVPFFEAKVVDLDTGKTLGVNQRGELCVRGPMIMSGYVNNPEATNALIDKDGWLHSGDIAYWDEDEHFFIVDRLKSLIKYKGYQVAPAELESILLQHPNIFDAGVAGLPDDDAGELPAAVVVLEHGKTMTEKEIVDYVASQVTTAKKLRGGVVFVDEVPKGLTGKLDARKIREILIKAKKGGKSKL
# Assay: qHTS profiling assay for firefly luciferase inhibitor/activator using purifed enzyme and Km concentrations of substrates (counterscreen for miR-21 project); also: nearly all actives have a fitted effect of over 55% in size;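 as to activity change, negative = inhibition: plate controls were vehicle for no effect and reference inhibitor for full effect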
# Details: purified FLuc, luminescence inhibition; series mostly up to 57.5 µM; activity change, negative = inhibition: at the top concentration
# Outline: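 Purified P. pyralis luciferase, 10 nM final, with Km-level 10 uM D-luciferin and 10 uM ATP in 50 mM Tris acetate pH 7.5, 10 mM Mg acetate, 0.01% Tween-20, 0.05% BSA; 6-point qHTS titration about 60 µM downward; luminescence read.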
# Potency is read from the fitted curve at half-maximal effect; tags tell the direction and shape of the fitted curve.
Compound,Potency,"activity change, negative = inhibition"
Cc1csc(NC(=S)Nc2cccc(Cl)c2)n1,active: 4.78 µM,–
Cc1ccc(NC2=C/C(=N/S(=O)(=O)c3cccs3)c3ccccc3C2=O)cc1,"inconclusive: 15.1 µM [inhibitor, partial curve]",–
CC(C)(Cl)C1Cc2cc3ccc(=O)oc3cc2O1 (stereo unspecified),"inconclusive: 12 µM [inhibitor, partial curve]",–
C/C(=N/NC(=O)c1cccs1)c1ccc(N2CCOCC2)cc1,"inconclusive: 9.53 µM [inhibitor, partial curve]",–
COc1ccc(N(C(=O)c2cnccn2)C(C(=O)NCc2ccccc2)c2ccc(O)cc2)cc1 (stereo unspecified),"inconclusive: 37.9 µM [inhibitor, single point]",–
Cc1cc(C)c2nc(SC(C)C#N)cc(C)c2c1 (stereo unspecified),"inconclusive: 37.9 µM [inhibitor, partial curve, poor fit]",–
Oc1ccc(/C(Cc2ccccn2)=N\Nc2ccccc2)c(O)c1,"inconclusive: 26.9 µM [inhibitor, partial curve, poor fit]",–
CC(C)(C)C(=O)/C(=C/c1ccncc1)n1cncn1,"inconclusive: 0.0076 µM [inhibitor, partial curve, poor fit]",–
COc1cc(OC)c(C(=O)O/N=C(\N)c2ccccn2)cc1OC,–,inactive: -4.27%
COc1ccc2nc(Nc3ccccc3)sc2c1,active: 1.51 µM,–
COc1ccc(CN(C(=O)c2cc3ccccc3oc2=O)C2CCS(=O)(=O)C2)cc1OC (stereo unspecified),active: 23.9 µM and active: 19 µM,–
COc1ccccc1-c1noc(-c2ccc(NC3CCCCC3)c([N+](=O)[O-])c2)n1,"inconclusive: 26.9 µM [inhibitor, partial curve, poor fit]",–
CC1CCCCN1C(=O)Cn1ncc2c3ccccc3n(Cc3ccccc3F)c2c1=O (stereo unspecified),–,inactive: 1.53%
NS(=O)(=O)c1ccc(N=NN2CCCCC2)cc1,active: 16.9 µM,–
Cc1cc(=O)n2[nH]c(N)c(N=Nc3ccccc3F)c2n1,"inconclusive: 33.8 µM [inhibitor, single point]",–
CCOc1ccccc1NC(=O)c1nnn(-c2ccc3c(c2)OCCO3)c1N,active: 16.9 µM,–
c1ccc(-c2noc(-c3cccnc3NCc3ccco3)n2)cc1,"inconclusive: 13.5 µM [inhibitor, partial curve]",–
Cc1ccc(NC(=O)c2cccs2)cc1,active: 12 µM,–
O=C(CSc1ccccn1)Nc1nc2ccc(Br)cc2s1,"inconclusive: 26.9 µM [inhibitor, single point]",–
Nc1nn(-c2ccccc2)c(N)c1N=Nc1cccc(F)c1,active: 4.26 µM,–
Cc1ccc(N2CN=C(c3ccccc3)NC2=S)cc1,active: 9.53 µM,–
